Laboratory results from PubChem BioAssay AID624296 (National Center for Advancing Translational Sciences (NCATS), 2012).
The whole screen tested about 350,000 compounds, of which about 9,900 (2.8%) were called active. Inconclusive results, whose numbers are uncertain, are shown with a selection of clear calls. Calls follow the shape of the dose curve; as a rule, active = well fitted activation curve with a large enough effect; inconclusive = small, poorly fitted or top-dose-only effect; inactive = no such curve, though single readings can be large or run the other way. Potencies of inconclusive entries are left out as doubtful fits.

assay: A quantitative high throughput screen for small molecules that induce DNA re-replication in MCF 10a normal breast cells.; also: nearly all actives have a fitted effect of over 50% in size; as to activity, positive = re-replication: % of control where 0% means no effect; conditions: MCF 10A DNA re-replication, Hoechst nuclear intensity, 48 h; activity, positive = re-replication: at 46.1 µM (top of the series)
From the text: H Molecular Libraries Probe Production Network [MLPCN]
NIH Chemical Genomics Center [NCGC]
Assay Provider: Melvin DePamphilis, NICHD, NIH
Eukaryotic cells normally restrict genome duplication to once per cell division. When this process is aberrant, DNA re-replication occurs when cells reinitiate DNA replication before the first round of replication is complete. DNA re-replication induces the DNA damage response, arrests cell proliferation, and triggers apoptosis. The cell cycle components cyclin A, Cdt-1, Cdc6 and geminin are critical regulators of this process and their misregulation results in DNA re-replication in normal and cancer cells. To identify compounds that induce re-replication in normal cells, an image-based assay was used to measure DNA content of nuclei, as detected by the fluorescent DNA binding dye, Hoechst. Cell nuclei were imaged by a fluorescence scanning plate imager and compounds that induce DNA re-replication were identified by the increase of nuclei with elevated fluorescence intensity
For screening, 250 cells in 5 uL/well were dispensed into black clear 1536-well plates (Aurora) using a solenoid-based dispenser. Following transfer of 23 nL compound or DMSO vehicle by a pin tool, the plates were incubated 48 hr at 37 C and 5% CO2. After addition of 1 uL/well Hoescht stain, the plates were incubated 40 min at 37 C, 5% CO2 and total intensity of fluorescent objects (nuclei) were enumerated by an Acumen Explorer Ex3 (TTP LabTech) fluorescence scanning plate imager (405 nm excitation, 500-530 nm emission).
Keywords: NIH Roadmap, MLPCN, MLI, MLSMR, qHTS, NCGC, DNA replication, cancer
Potency is read from the fitted curve at half-maximal effect; tags tell the direction and shape of the fitted curve.

Compound	activity, positive = re-replication	Potency
O=C(CCc1c[nH]c2ccccc12)OCC(=O)N1CCN(S(=O)(=O)c2ccccc2)CC1	inactive: -0.569%	
Cc1cc(NC(=O)c2cc(C(C)(C)C)oc2C)no1		inconclusive [activator, partial curve, poor fit]
CCN1CCN(c2ccc(N3CCN(S(=O)(=O)c4ccc(C)c([N+](=O)[O-])c4)CC3)nn2)CC1		inconclusive [activator, full curve, poor fit]
CCC1(c2ccccc2)C(=O)N=C(N)N(C#N)C1=O (configuration not stated)		inconclusive [activator, single point]
NC[C@H](Cc1ccccc1)NCCCCC1CCCCC1	inactive: 12%	
O=C(NNC(=S)NCc1ccco1)c1cccs1		inconclusive [activator, full curve, poor fit]
O=C(CSc1nc(O)cc(=O)[nH]1)N1c2ccccc2CCc2ccccc21		inconclusive [activator, single point]
CC(NC(=O)c1cc(COc2cccc(C(F)(F)F)c2)on1)c1nccs1 (configuration not stated)	inactive: -5.69%	
O=C1CC2(CCCC2)Oc2ccccc21		inconclusive [activator, full curve, poor fit]
CCOC(=O)CSC1=C(C#N)C(C)C2=C(CCCC2=O)N1 (configuration not stated)		inconclusive [activator, partial curve, poor fit]
CC(C)C(OC(=O)CN1C(=O)COc2ccccc21)C(=O)NC1CCCC1 (configuration not stated)	inactive: -1.66%	
CCOc1ccccc1C(O)C1=CC(=O)c2ccccc2C1=O (configuration not stated)		inconclusive [activator, partial curve, poor fit]
O=C(Nc1ccccn1)c1ccc(S(=O)(=O)N2CCCC2)cc1		inconclusive [activator, single point]
COc1ccc(/C=C/C(=O)OCC(=O)Nc2ccc3c(c2)OCO3)cc1	inactive: -0.107%	
Cc1ccc2sc(N3CCN(CCNC(=O)c4ccco4)CC3)nc2c1C	inactive: 24.9%	
CCN(CC)c1ccc(NC(=O)c2ccccc2)cc1S(=O)(=O)Nc1ccccc1OC	inactive: 11.3%	
COC(=O)c1ccc(CSCC(=O)Nc2cc(OC)cc(OC)c2)o1		inconclusive [activator, single point]
O=C(COc1ccc2c3c(c(=O)oc2c1)CCCC3)NCCCn1ccnc1	inactive: -0.373%	
COc1ccc(NC(=O)c2nc(C)c(C3(C)CC(c4cccnc4)=NO3)s2)cc1 (configuration not stated)		inconclusive [activator, full curve, poor fit]
CCN(Cc1nc2ccccc2c(=O)[nH]1)Cc1cc(=O)oc2cc(C)c(C)cc12		inconclusive [activator, single point]
CC(C)N=C1NN=C(c2ccc(Cl)c(Cl)c2)CS1		inconclusive [activator, single point]
CC(=O)Oc1ccc(Cl)cc1CN(C(C)=O)C1CCCCC1		inconclusive [activator, partial curve, poor fit]
CC(C)CC(C)c1cc(N)nc2nc3ccccc3n12 (configuration not stated)		inconclusive [activator, single point]

Compound	activity, positive = re-replication	Potency
CCN1CC(CN(C)Cc2nc(-c3ccc(C(F)(F)F)cc3)oc2C)CC1=O (configuration not stated)		inconclusive [activator, full curve, poor fit]
CC(=O)Nc1ccc(S(=O)(=O)NCCNS(=O)(=O)c2ccc(NC(C)=O)cc2)cc1	inactive: -0.766%	
Cc1c(NC(=O)C(C)Oc2ccc(Br)cc2Cl)c(=O)n(-c2ccccc2)n1C (configuration not stated)	inactive: 2.87%	
CCN(CC)CCCn1c2c(c(SCC(=O)Nc3ccc(F)c(F)c3)nc1=O)CCC2		inconclusive [activator, single point]
Cc1ccc(N/N=C(\Cc2nc3ccccc3[nH]2)c2ccccc2)cc1	inconclusive: 113% [activator]	
OCC1OC(n2cnc3c(=S)nc[nH]c32)CC1O (configuration not stated)		inconclusive [activator, partial curve]
Cc1nc(SCC(=O)N2c3ccccc3NC(=O)CC2C)c2c(C)c(C)sc2n1 (configuration not stated)		inconclusive [activator, single point]
CN(CC(=O)Nc1cccc(Cl)c1)S(=O)(=O)c1ccc2c(c1)n(C)c(=O)c(=O)n2C		inconclusive [activator, single point]
CCOC(=O)c1nnn(-c2nonc2-n2cccc2)c1CCl		inconclusive [activator, single point]
O=C(C=Cc1ccco1)c1ccc2ccccc2c1		inconclusive [activator, single point]
CCC(C)c1ccccc1N1CC(C(=O)Nc2ccc(S(=O)(=O)N3CCOCC3)cc2)CC1=O (configuration not stated)	inactive: 5.87%	
COc1ccc(C)cc1NC(=O)CN1CCN(C/C=C/c2ccccc2)CC1		inconclusive [activator, partial curve, poor fit]
C=CC[C@@H](CC(=O)N[C@H](CO)Cc1ccccc1)C(=O)N[C@@H](C)COC(=O)[C@@H](CC=C)CC(=O)OC(C)(C)C	inactive: 15.3%	
CCOc1ccc(-c2nc(=S)[nH][nH]2)cc1	inactive: 2.75%	
CSc1nc(Cl)cc(Nc2ccc(O)cc2)n1		inconclusive [activator, single point]
COc1ccc(OC)c(NC(=O)NCc2ccc(F)cc2)c1	inactive: 0.97%	
O=C(NC(Cc1ccccc1)C(=O)N1CCN(c2ccccc2O)CC1)c1ccccc1 (configuration not stated)		inconclusive [activator, partial curve, poor fit]
CCOC(=O)c1sc(NC(=O)c2ccc(OC(C)=O)cc2)nc1C	inactive: -0.17%	
CCCn1c(SCC(=O)Nc2ccccc2N2CCCCC2)nc2c1c(=O)n(C)c(=O)n2C	inactive: 2.7%	
O=C1CCC/C(=N\NC(=O)c2ccc(COc3cccc4cccnc34)cc2)C1		inconclusive [activator, partial curve, poor fit]
Cc1cc2cc(CNC(=S)Nc3ccc(OC(F)F)cc3)ccc2n1C		inconclusive [activator, partial curve, poor fit]
COc1ccccc1CNS(=O)(=O)c1ccc(-c2cnc(C3CC3)o2)cc1		inconclusive [activator, full curve, poor fit]
COc1ccnc(Oc2ccccc2)c1C(=O)N/C=N/OCc1ccc(F)cc1Cl		inconclusive [activator, single point]

Compound	activity, positive = re-replication	Potency
Cc1ccc(C)c(/C=N/NC(=S)NCCc2ccccc2)c1		inconclusive [activator, partial curve, poor fit]
Cc1ccc(Cn2ncc3c(N4CCN(Cc5ccc(Cl)cc5)CC4)ncnc32)cc1		inconclusive [activator, single point]
c1ccc2c(c1)C(=NCC1CCCO1)NC2=NCC1CCCO1 (configuration not stated)		inconclusive [activator, full curve, poor fit]
O=C(c1cc(-c2cccs2)nc2ccccc12)N1CCN(c2ccccc2)CC1		inconclusive [activator, single point]
O=C(C1CCN(S(=O)(=O)c2cccc3cccnc23)CC1)N1CCc2ccccc21		inconclusive [activator, partial curve, poor fit]
COc1ccc(Cc2nc(-c3ccc(NC(=O)c4cccnc4)cc3)no2)cc1		inconclusive [activator, partial curve, poor fit]
CCOC(=O)c1ccc(S(=O)(=O)Nc2nc3cc(S(=O)(=O)NC4=NCCCCC4)ccc3s2)cc1	inactive: 14.7%	
Cc1ccc(Cl)cc1NC(=O)c1cc(NC(=O)C2CCCCC2C(=O)O)ccc1N1CCOCC1 (configuration not stated)		inconclusive [activator, single point]
O=C(c1cc2ccccc2oc1=O)N(Cc1cccs1)Cc1cccs1		inconclusive [activator, single point]
COc1ccc(CNc2cc(C)nc3ccc(OC)cc23)cc1		inconclusive [activator, partial curve, poor fit]
COc1ccc(/C(C)=N/NC(=S)NCCc2ccccc2)c(O)c1		inconclusive [activator, single point]
Nc1c(C(=O)Nc2ccc(S(=O)(=O)N3CCCC3)cc2)sc2nc3ccc(OC(F)(F)F)cc3cc12		inconclusive [activator, partial curve, poor fit]
COc1ccc(-c2noc(C3CCCN(C(=O)c4ccc(C)cc4)C3)n2)cc1 (configuration not stated)	inactive: 15.6%	
Cc1cccc(C(=O)NC2CCN(C(=S)NCc3ccco3)CC2)c1		inconclusive [activator, single point]
O=C(Nc1ccc(-c2csc(Nc3ccccc3)n2)cc1)c1ccccc1	inactive: -24.6%	
O=C1c2ccccc2[C@@H]2C[C@@H](O)[C@H](Nc3cccc4ccccc34)CCN12		inconclusive [activator, full curve, poor fit]
CCOC(=O)C(c1ccccc1)C(Nc1ccc(F)cc1)c1ccccn1 (configuration not stated)	inactive: 0.641%	
COc1ccccc1Cn1c(/C=C/c2ccccc2)nc2ccccc21		inconclusive [activator, single point]
COc1cccc(-c2nnc(SCC(=O)Nc3cc(C)on3)o2)c1		inconclusive [activator, single point]
COc1cc(CC2C(=O)Nc3ccccc32)cc(C)c1O (configuration not stated)	inactive: 0.921%	
O=C(CSc1ccccc1)NC1CCCCCCC1		inconclusive [activator, single point]
